Assays:
Type in all cases: functional, cell-based
Mu-type opioid receptor [1] = target: T1, Mu-type opioid receptor (Homo sapiens, UniProt P35372); assay: Agonist activity at human MOR expressed in CHO-K1 cells assessed as decrease in cAMP level incubated for 30 mins in presence of forskolin by HitHunter cAMP analysis
Mu-type opioid receptor [2] = target: T1, Mu-type opioid receptor; assay: Agonist activity at human MOR expressed in CHO-K1 cells assessed as decrease in beta-arrestin 2 recruitment incubated for 90 mins by HitHunter cAMP analysis
[3] = target: Delta-type opioid receptor (Homo sapiens, UniProt P41143); assay: Partial agonist activity at human DOR expressed in CHO-K1 cells assessed as decrease in cAMP level incubated for 30 mins in presence of forskolin by HitHunter cAMP analysis
UniProt P41143, sequence (P41143 whole entry): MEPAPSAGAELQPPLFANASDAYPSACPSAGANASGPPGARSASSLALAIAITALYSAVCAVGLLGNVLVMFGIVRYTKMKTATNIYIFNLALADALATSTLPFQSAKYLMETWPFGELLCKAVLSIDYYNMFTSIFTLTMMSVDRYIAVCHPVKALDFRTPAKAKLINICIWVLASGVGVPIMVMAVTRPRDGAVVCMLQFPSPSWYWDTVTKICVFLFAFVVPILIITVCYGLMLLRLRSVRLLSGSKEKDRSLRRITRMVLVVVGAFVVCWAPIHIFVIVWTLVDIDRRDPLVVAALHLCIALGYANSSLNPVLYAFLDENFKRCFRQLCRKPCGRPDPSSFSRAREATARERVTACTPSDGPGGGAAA

[4] = target: T2, Kappa-type opioid receptor (Homo sapiens, UniProt P41145); assay: Agonist activity at human KOR expressed in CHO-K1 cells assessed as decrease in cAMP level incubated for 30 mins in presence of forskolin by HitHunter cAMP analysis
T2 sequence (P41145 whole entry): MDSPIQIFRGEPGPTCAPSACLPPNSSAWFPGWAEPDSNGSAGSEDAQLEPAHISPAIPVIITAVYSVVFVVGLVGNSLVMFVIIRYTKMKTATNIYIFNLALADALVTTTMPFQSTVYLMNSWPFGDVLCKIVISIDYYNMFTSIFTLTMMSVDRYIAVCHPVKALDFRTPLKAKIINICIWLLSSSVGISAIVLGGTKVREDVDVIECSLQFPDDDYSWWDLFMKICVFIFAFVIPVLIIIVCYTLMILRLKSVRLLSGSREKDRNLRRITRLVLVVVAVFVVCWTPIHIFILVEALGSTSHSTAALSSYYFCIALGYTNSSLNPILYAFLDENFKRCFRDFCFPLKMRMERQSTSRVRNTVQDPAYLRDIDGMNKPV

Nociceptin receptor = Nociceptin receptor (Homo sapiens, UniProt P41146); assay: Agonist activity at human NOR expressed in CHO-K1 cells assessed as decrease in cAMP level incubated for 30 mins in presence of forskolin by HitHunter cAMP analysis
UniProt P41146, sequence (P41146 whole entry): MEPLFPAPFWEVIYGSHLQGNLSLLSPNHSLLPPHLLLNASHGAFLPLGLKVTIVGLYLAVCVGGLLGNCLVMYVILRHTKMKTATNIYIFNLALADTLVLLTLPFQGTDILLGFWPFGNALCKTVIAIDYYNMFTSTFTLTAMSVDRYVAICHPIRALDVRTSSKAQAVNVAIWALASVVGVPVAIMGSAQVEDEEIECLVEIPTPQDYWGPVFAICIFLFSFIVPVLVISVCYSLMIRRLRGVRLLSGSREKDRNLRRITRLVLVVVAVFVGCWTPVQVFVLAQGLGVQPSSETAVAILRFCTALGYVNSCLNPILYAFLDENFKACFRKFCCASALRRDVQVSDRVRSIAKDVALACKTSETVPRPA

[5] = target: T2, Kappa-type opioid receptor; assay: Antagonist activity at human KOR expressed in CHO-K1 cells assessed as cAMP level preincubated for 15 mins followed by agonist addition and measured after 30 mins by HitHunter cAMP analysis

T1 sequence (P35372 whole entry): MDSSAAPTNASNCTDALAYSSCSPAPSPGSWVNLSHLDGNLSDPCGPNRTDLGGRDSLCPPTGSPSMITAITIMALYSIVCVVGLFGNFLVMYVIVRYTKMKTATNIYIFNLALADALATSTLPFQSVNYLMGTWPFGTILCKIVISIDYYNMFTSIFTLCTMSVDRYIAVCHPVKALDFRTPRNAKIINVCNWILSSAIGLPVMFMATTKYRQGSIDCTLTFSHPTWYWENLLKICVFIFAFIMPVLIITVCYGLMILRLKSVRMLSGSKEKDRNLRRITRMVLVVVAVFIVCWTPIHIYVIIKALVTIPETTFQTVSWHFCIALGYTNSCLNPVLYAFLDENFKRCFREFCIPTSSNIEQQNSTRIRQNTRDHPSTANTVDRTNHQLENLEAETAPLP

| SMILES | EC50 (Mu-type opioid receptor [1]) [nM] | EC50 (Mu-type opioid receptor [2]) [nM] | further results |
| --- | --- | --- | --- |
| Oc1cccc(N2[C@@H]3CC[C@H]2CNC3)c1 | 421 | – | – |
| COc1cccc(N2[C@@H]3CC[C@H]2CN(CCCc2ccccc2)C3)c1 | 392 | – | – |
| C[C@@H]1CN(CCCc2ccccc2)C[C@H](C)N1c1cccc(O)c1 | > 10000 | – | – |
| Oc1cccc(N2[C@@H]3CC[C@H]2CN(CC2CC2)C3)c1 | 517 | – | – |
| COc1ccc(N2[C@@H]3CC[C@H]2CN(CCCc2ccccc2)C3)cc1 | 1110 | – | – |
| C=CCN1C[C@H]2CC[C@@H](C1)N2c1cccc(O)c1 | 325 | – | – |
| Oc1cccc(CN2[C@@H]3CC[C@H]2CN(CCCc2ccccc2)C3)c1 | 213 | > 50000 | – |
| C[C@@H]1CN(c2cccc(O)c2)C[C@H](C)N1CCCc1ccccc1 | 84.2 | > 50000 | – |
| Oc1cccc(N2C[C@H]3CC[C@@H](C2)N3CCCc2ccccc2)c1 | 0.26 | 13.7 | EC50 [3]: 1.77 nM; EC50 [4]: > 10000 nM; EC50 (Nociceptin receptor): > 10000 nM; IC50 [5]: 96.6 nM |

— ChEMBL document CHEMBL5506067, “Searching for Synthetic Opioid Rescue Agents: Identification of a Potent Opioid Agonist with Reduced Respiratory Depression” (J Med Chem, 2024)
